{"source": "PubChem BioAssay AID504333", "about": "(National Center for Advancing Translational Sciences (NCATS), 2011)", "note": "Several values for one entry are separate records, joined by “and”; a condition that tells them apart may be missing. Identical values can stand only once. Out of some 360,000 compounds screened, about 16,000 (4.4%) were called active. Inconclusive results, whose numbers are uncertain, are shown with a selection of clear calls. The call rests on the fitted dose curve; in most records, active means well fitted inhibition curve with a large enough effect; inconclusive means small, poorly fitted or top-dose-only effect; inactive means no such curve, though single readings can be large or run the other way. Potencies beside an inconclusive call are fits to weak or partial responses and may not hold up. On the % scale 0 is the no-effect control and ±100 the full control effect; potency means the concentration at half of the fitted maximal effect; tags describe the fitted curve by direction and shape.", "data": [{"target": "Bromodomain adjacent to zinc finger domain protein 2B (Homo sapiens) (UniProt Q9UIF8)", "sequence (Q9UIF8 whole entry, looked up, the tested form may be a part)": "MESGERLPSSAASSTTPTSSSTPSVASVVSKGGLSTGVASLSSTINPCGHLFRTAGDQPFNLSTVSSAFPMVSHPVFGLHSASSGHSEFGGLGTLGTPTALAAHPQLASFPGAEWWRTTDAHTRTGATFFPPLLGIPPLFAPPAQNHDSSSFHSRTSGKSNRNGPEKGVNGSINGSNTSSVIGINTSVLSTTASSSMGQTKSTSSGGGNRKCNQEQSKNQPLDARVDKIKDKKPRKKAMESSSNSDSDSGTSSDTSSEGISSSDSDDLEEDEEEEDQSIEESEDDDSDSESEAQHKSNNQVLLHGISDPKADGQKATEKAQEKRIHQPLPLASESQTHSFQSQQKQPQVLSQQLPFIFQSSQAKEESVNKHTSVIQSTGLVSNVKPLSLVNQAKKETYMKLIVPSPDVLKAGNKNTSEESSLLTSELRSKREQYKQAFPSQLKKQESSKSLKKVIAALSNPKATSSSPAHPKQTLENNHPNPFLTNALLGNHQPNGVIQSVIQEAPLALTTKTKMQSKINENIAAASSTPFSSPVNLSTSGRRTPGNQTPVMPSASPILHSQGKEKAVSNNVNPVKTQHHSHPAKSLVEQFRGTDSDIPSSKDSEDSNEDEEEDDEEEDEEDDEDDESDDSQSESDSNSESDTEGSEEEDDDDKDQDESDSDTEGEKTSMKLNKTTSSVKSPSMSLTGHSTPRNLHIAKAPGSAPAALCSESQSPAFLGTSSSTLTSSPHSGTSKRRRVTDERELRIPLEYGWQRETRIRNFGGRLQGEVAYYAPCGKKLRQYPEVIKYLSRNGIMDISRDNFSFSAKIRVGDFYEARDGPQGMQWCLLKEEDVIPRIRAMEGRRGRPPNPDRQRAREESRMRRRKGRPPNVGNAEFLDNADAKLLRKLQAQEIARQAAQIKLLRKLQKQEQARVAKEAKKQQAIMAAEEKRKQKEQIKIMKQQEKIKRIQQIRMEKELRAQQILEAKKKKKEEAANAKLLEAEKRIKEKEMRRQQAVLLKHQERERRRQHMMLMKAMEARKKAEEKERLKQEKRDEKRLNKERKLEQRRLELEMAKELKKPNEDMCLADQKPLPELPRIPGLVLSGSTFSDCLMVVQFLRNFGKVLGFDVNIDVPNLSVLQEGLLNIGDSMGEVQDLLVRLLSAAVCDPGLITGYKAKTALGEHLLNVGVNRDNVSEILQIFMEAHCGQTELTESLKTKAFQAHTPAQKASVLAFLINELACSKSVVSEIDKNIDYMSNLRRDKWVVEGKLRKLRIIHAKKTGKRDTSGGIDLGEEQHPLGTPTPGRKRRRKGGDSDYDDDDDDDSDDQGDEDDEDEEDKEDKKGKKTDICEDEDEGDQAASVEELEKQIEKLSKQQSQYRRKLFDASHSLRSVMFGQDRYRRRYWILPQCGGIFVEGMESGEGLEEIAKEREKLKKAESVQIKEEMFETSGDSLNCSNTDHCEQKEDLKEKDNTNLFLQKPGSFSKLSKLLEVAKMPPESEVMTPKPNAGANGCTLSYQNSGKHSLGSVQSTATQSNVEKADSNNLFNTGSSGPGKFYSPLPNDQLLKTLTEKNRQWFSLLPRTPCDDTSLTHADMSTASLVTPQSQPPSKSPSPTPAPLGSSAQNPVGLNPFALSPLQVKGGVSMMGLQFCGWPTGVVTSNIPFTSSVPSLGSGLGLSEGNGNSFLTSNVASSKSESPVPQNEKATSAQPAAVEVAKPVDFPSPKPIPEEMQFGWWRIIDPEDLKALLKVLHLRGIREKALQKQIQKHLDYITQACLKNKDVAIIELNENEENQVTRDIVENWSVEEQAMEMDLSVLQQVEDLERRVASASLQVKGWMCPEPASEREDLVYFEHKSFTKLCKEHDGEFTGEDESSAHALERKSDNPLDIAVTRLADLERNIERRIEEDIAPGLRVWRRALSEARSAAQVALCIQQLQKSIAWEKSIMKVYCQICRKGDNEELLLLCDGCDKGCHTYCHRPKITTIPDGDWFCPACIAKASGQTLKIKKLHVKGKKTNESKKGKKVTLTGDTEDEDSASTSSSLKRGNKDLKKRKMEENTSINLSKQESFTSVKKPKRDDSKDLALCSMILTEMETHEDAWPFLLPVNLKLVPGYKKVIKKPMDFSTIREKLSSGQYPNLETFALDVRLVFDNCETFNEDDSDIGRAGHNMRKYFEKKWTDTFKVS", "experiment": "qHTS Assay for Inhibitors of BAZ2B; further: nearly all actives have a fitted effect of over 60% in size", "conditions": "AlphaScreen BAZ2B-H3K14Ac peptide displacement; activity change, negative = inhibition: at 114 µM (top of the series) unless noted", "procedure,_shortened": "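Compounds, titrated to a top concentration of 110 uM, were incubated 30 min at room temperature with preformed BAZ2B/acetyl-K14 H3 peptide complex (50 nM each). Proximity signal was measured by AlphaScreen after 20 min with beads.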", "values": [{"smiles": "O=C(O)CC(Cn1[nH]nnc1=S)c1ccccc1", "note": "(centres undefined)", "Potency": "inconclusive: 89.1 µM [inhibitor, single point]"}, {"smiles": "O=C(Nc1cccc(F)c1)c1ccc(-c2ccccc2Cl)o1", "Potency": "inconclusive: 100 µM [inhibitor, partial curve]"}, {"smiles": "O=[N+]([O-])c1ccc(N2CCCCCC2)c(S(=O)(=O)N2CCCCC2)c1", "Potency": "inconclusive: 31.6 µM [inhibitor, full curve]"}, {"smiles": "CC1CCC(C(C)C)C(OC(=O)COC(=O)c2cc(O)ccc2N)C1", "note": "(centres undefined)", "Potency": "inconclusive: 35.5 µM [inhibitor, full curve]"}, {"smiles": "COc1ccc(-c2ccc(/C=C3/C(=N)N4C=CSC4=NC3=O)o2)c([N+](=O)[O-])c1", "Potency": "inconclusive: 79.4 µM [inhibitor, single point]"}, {"smiles": "NC(=O)C1CCN(c2nc(-c3ccccc3-c3ccccc3)cs2)CC1", "Potency": "inconclusive: 89.1 µM [inhibitor, single point]"}, {"smiles": "CCc1nccn1CCC(=O)N1CCCC(Nc2ccc(F)cc2)C1", "note": "(centres undefined)", "activity change, negative = inhibition": "inactive: -16.2% [at 57.1 µM]"}, {"smiles": "COc1ccc(C2C(C#N)=C(N)Oc3c2c(-c2ccccc2)nn3-c2ccccc2)c(OC)c1OC", "note": "(centres undefined)", "Potency": "active: 25.1 µM"}, {"smiles": "O=C(Nc1ccccc1N1CCCCC1)c1ccc([N+](=O)[O-])o1", "Potency": "active: 11.2 µM"}, {"smiles": "COc1cc2c(cc1OC)C(c1ccc(-c3ccccc3Cl)o1)=NCC2", "Potency": "active: 28.2 µM"}, {"smiles": "Cc1ccc(N=CC=C2OC(C)(C)C(C)(C)O2)c(C)c1", "Potency": "inconclusive: 100 µM [inhibitor, single point]"}, {"smiles": "COC(=O)c1c(NS(=O)(=O)Cc2ccccc2)sc2c1CCCC2", "Potency": "inconclusive: 89.1 µM [inhibitor, single point]"}, {"smiles": "CCOc1ccc(CCNC(=O)CCSCc2cccc(Cl)c2)cc1OCC", "activity change, negative = inhibition": "inactive: 2.77%"}, {"smiles": "COc1ccc(CN=CC2=C(O)CNC2=O)cc1", "activity change, negative = inhibition": "inactive: -23.7%"}, {"smiles": "COc1ccccc1C1=NN(C(=O)c2ccccc2)C(c2ccc(Br)cc2)C1", "note": "(centres undefined)", "Potency": "inconclusive: 89.1 µM [inhibitor, single point]"}, {"smiles": "CCc1ccc(C(=O)c2cn(Cc3ccccc3)c3cc(OC)c(OC)cc3c2=O)cc1", "Potency": "inconclusive: 35.5 µM [inhibitor, full curve]"}, {"smiles": "Cc1cccc(C(=O)NC(NC(=S)Nc2ccc(S(N)(=O)=O)cc2)C(Cl)(Cl)Cl)c1", "note": "(centres undefined)", "Potency": "inconclusive: 70.8 µM [inhibitor, single point]"}, {"smiles": "CCOc1ccccc1Nc1nc(N)nc(CN(C)C2CCCCC2)n1", "Potency": "active: 17.8 µM"}, {"smiles": "Cc1ccccc1N=Nc1ccc(O)c2ncccc12", "Potency": "active: 7.94 µM"}, {"smiles": "Cc1cccc(NC2CCCCC2NS(=O)(=O)c2ccccc2)c1", "note": "(centres undefined)", "Potency": "inconclusive: 79.4 µM [inhibitor, single point]"}, {"smiles": "CCCCN(C)CC(O)Cn1cc(/C=C/C(=O)c2ccc(OCC)cc2)c2ccccc21", "note": "(centres undefined)", "Potency": "inconclusive: 50.1 µM [inhibitor, partial curve] and inconclusive: 44.7 µM [inhibitor, partial curve]"}, {"smiles": "O=[N+]([O-])c1ccccc1/C=C/C=N/n1c(-c2ccc(Cl)cc2)n[nH]c1=S", "Potency": "inconclusive: 89.1 µM [inhibitor, single point]"}, {"smiles": "COc1ccc(N2CCN(C(c3cc(OC)ccc3OC)c3nnnn3Cc3ccco3)CC2)cc1", "note": "(centres undefined)", "Potency": "active: 44.7 µM"}, {"smiles": "C=CCNC(=S)NCc1cccnc1", "activity change, negative = inhibition": "inactive: 9.88%"}, {"smiles": "O=C(Nc1ccc(NC(=O)C2CCCCC2)nc1)c1ccccn1", "Potency": "inconclusive: 79.4 µM [inhibitor, partial curve]"}, {"smiles": "CN(CCOc1ccc(Cl)cc1)C(=O)c1cc(-c2ccco2)nc2ccccc12", "activity change, negative = inhibition": "inactive: -30.8%"}, {"smiles": "CC(=O)c1cc(-c2ccccc2)[nH]c1N1CCOCC1", "Potency": "inconclusive: 28.2 µM [inhibitor, single point]"}, {"smiles": "COc1ccc(N(CC(=O)NCc2ccco2)C(=O)CNS(=O)(=O)c2ccc(Cl)cc2)cc1", "activity change, negative = inhibition": "inactive: -20.7%"}, {"smiles": "c1coc(-c2nnc(-c3ccco3)nn2)c1", "Potency": "active: 20 µM"}, {"smiles": "CC(C)NC(=S)NC(=O)/C=C/c1ccc(F)cc1", "activity change, negative = inhibition": "inactive: 5.04%"}, {"smiles": "CCOC(=O)c1[nH]c(C)c(C(=O)NCCc2ccccc2)c1C", "activity change, negative = inhibition": "inactive: -7.06%"}, {"smiles": "CC1=NNC(=O)/C1=C\\c1cn(-c2ccccc2)nc1-c1cccs1", "Potency": "inconclusive: 25.1 µM [inhibitor, full curve]"}, {"smiles": "CCOc1cc(/C=N/NC(=O)CSc2nncn2C)ccc1OCc1ccccc1", "Potency": "inconclusive: 89.1 µM [inhibitor, single point]"}, {"smiles": "O=C(O)CC1S/C(=N/N=C/c2ccc([N+](=O)[O-])cc2)N(c2ccc(O)cc2)C1=O", "note": "(centres undefined)", "Potency": "inconclusive: 89.1 µM [inhibitor, single point]"}, {"smiles": "O=C(O)CCC(=O)CCC(=O)c1ccccc1", "Potency": "inconclusive: 79.4 µM [inhibitor, partial curve]"}, {"smiles": "Nc1cc(C(F)(F)F)ccc1Nc1ccccc1", "Potency": "active: 50.1 µM"}, {"smiles": "O=C(O)c1ccccc1Nc1ccc([N+](=O)[O-])cc1C(=O)O", "Potency": "inconclusive: 89.1 µM [inhibitor, single point]"}, {"smiles": "O=C(CCn1c(=O)c2ccccc2n(Cc2ccc(Cl)cc2)c1=O)NCc1ccc2c(c1)OCO2", "activity change, negative = inhibition": "inactive: 2.09%"}, {"smiles": "CCn1cnc2cc(NCc3ccccc3Cl)ccc21", "Potency": "inconclusive: 50.1 µM [inhibitor, partial curve]"}, {"smiles": "O=C(C[n+]1cccc(CNC(=O)c2ccc(OC(F)F)cc2)c1)Nc1ccc(F)cc1", "activity change, negative = inhibition": "inactive: 6.45%"}, {"smiles": "Fc1ccc(CSc2ncnc3ccccc23)cc1", "activity change, negative = inhibition": "inactive: 142%"}, {"smiles": "COc1ccc(/C=C/C(=O)OCC(=O)NC2CCCC2)cc1", "activity change, negative = inhibition": "inactive: 2.66%"}, {"smiles": "COc1ccccc1-c1nc(C#N)c(N2CCCCCC2)o1", "Potency": "inconclusive: 79.4 µM [inhibitor, single point]"}, {"smiles": "Cc1ccc(S(=O)(=O)/N=C(/c2ccc(F)cc2)N2CCCCC2)cc1", "activity change, negative = inhibition": "inactive: -7.39%"}, {"smiles": "N#Cc1c(/N=C/C=C/c2ccccc2)sc2c1CCCC2", "Potency": "active: 22.4 µM"}, {"smiles": "COc1ccc(N2CCN(C(=O)C(=O)c3c(C)n(C)c4ccccc34)CC2)cc1", "Potency": "inconclusive: 56.2 µM [inhibitor, partial curve]"}, {"smiles": "COc1ccnc(CSC(N)=Nc2ccccc2OC)c1", "Potency": "inconclusive: 79.4 µM [inhibitor, single point]"}, {"smiles": "CN(C(=O)c1cccs1)c1ccccc1C(=O)O", "Potency": "inconclusive: 89.1 µM [inhibitor, single point]"}, {"smiles": "CC(C)CCn1c(=O)c2sccc2n2c(CCCC(=O)Nc3ccc(F)c(Cl)c3)nnc12", "Potency": "inconclusive: 89.1 µM [inhibitor, single point]"}, {"smiles": "Cc1cccc(C)c1NC(=O)CSc1nnc(NC(=O)c2ccccc2C(=O)O)s1", "activity change, negative = inhibition": "inactive: -14.9%"}, {"smiles": "COc1ccc(C(=O)COC(=O)c2nn(C)c(=O)c3ccccc23)c(OC)c1", "Potency": "inconclusive: 44.7 µM [inhibitor, partial curve, poor fit]"}, {"smiles": "CC(COc1cccc2ccccc12)CN1CCN(C)CC1", "note": "(centres undefined)", "activity change, negative = inhibition": "inactive: 3.84%"}, {"smiles": "COc1ccc(C[C@H]2CN3C(=NC[C@@H]3Cc3ccc(O)cc3)N2C[C@H](C)NC(=O)c2ccc(C)c(Br)c2)cc1", "Potency": "inconclusive: 89.1 µM [inhibitor, single point]"}, {"smiles": "c1cn2cc(CSC3CCCCC3)nc2s1", "activity change, negative = inhibition": "inactive: 14%"}, {"smiles": "O=[N+]([O-])c1ccc(CN2CCCCCC2)s1", "Potency": "active: 39.8 µM"}, {"smiles": "O=C(NC(=S)N1CCN(Cc2ccccc2)CC1)c1ccccc1", "Potency": "inconclusive: 70.8 µM [inhibitor, single point]"}, {"smiles": "CCN(CCNS(=O)(=O)c1ccc2[nH]c(=O)sc2c1)c1ccccc1", "Potency": "inconclusive: 89.1 µM [inhibitor, single point]"}, {"smiles": "Cc1ccc(NC(=O)CN2C(=O)C(c3ccc(F)cc3)=NC2(C)C)c(C)c1", "activity change, negative = inhibition": "inactive: -3.96%"}, {"smiles": "C=CCN1C(=O)/C(=c2\\sc3nc(=O)c(Cc4ccccc4)nn3c2=O)c2ccccc21", "Potency": "inconclusive: 50.1 µM [inhibitor, partial curve]"}, {"smiles": "CCOc1ccc(NC(=S)NCc2nc3ccccc3[nH]2)cc1", "activity change, negative = inhibition": "inactive: -21.8%"}, {"smiles": "O=C(CSc1nnc(-c2ccccc2)c(-c2ccccc2)n1)Nc1ncc(Cl)cc1Cl", "Potency": "inconclusive: 39.8 µM [inhibitor, partial curve]"}, {"smiles": "Cc1ccc(S(=O)(=O)N(CC(=O)NCc2ccc(F)cc2)C(=O)N2CCN(C)CC2)cc1", "activity change, negative = inhibition": "inactive: -4.32%"}, {"smiles": "C/C=C/C=C/C(=O)[C@@H]1[C@@H]([C@]2(C)OC(=O)C(C)=C2O)[C@H]2/C(=C(O)/C=C/C=C/C)C(=O)[C@]1(C)C(=O)C2(C)O", "note": "(some centres undefined)", "Potency": "active: 79.4 µM"}, {"smiles": "COc1ccc(-c2csc(NC(=O)CSc3n[nH]c(N)n3)n2)cc1", "activity change, negative = inhibition": "inactive: -8.04%"}, {"smiles": "CCOc1ccccc1NC(=O)CSc1nnc(-c2ccccn2)n1Cc1ccco1", "Potency": "inconclusive: 79.4 µM [inhibitor, single point]"}, {"smiles": "CCOc1ccc2nc(SC3CC(=O)N(c4cccc(OC)c4)C3=O)sc2c1", "note": "(centres undefined)", "activity change, negative = inhibition": "inactive: 3.47%"}, {"smiles": "COC(=O)c1c(-c2ccccc2)csc1NC(=O)C1CC=CCC1C(=O)O", "note": "(centres undefined)", "Potency": "inconclusive: 79.4 µM [inhibitor, single point]"}, {"smiles": "O=C(Nc1ccccc1[N+](=O)[O-])c1csnn1", "Potency": "inconclusive: 39.8 µM [inhibitor, partial curve]"}, {"smiles": "COc1cccc(C2NC(=S)NC(C)=C2C(=O)c2ccccc2)c1OC", "note": "(centres undefined)", "Potency": "inconclusive: 79.4 µM [inhibitor, partial curve]"}, {"smiles": "Oc1ccc(Cl)cc1CNc1cccc2cccnc12", "Potency": "inconclusive: 89.1 µM [inhibitor, single point]"}, {"smiles": "COC(=O)Cn1cc(/C=C/c2cc[n+](C)cc2)c2ccccc21", "Potency": "active: 44.7 µM"}, {"smiles": "COc1ccc(Br)c2oc(SC)cc(=O)c12", "Potency": "inconclusive: 39.8 µM [inhibitor, partial curve, poor fit]"}, {"smiles": "COc1cc(/C=C/C(=O)N(C)c2ccccc2C(=O)O)cc(OC)c1OC", "activity change, negative = inhibition": "inactive: -2.95%"}, {"smiles": "COCCCNc1nc2ccccc2nc1NS(=O)(=O)c1ccccc1", "Potency": "inconclusive: 89.1 µM [inhibitor, single point]"}]}]}
